Here are results for 98 compounds from publication PMC6919601, “Identification of Plasmodium dipeptidyl aminopeptidase allosteric inhibitors by high throughput screening” (PLoS ONE, 2019).

Among all 110,000 compounds or so, about 230 (0.21%) showed an effect of 50% or more. Some of the results follow.
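Further: 30 min substrate incubation versus DMSO and 10 µM JCP410 controls.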

The target of this experiment is DPAP1 (Plasmodium falciparum, UniProt Q8IIJ9). Kind of experiment: primary screen, percent inhibition; read by cleavage of a fluorogenic dipeptide substrate; higher = more effect of the substance. Set-up: species or system P. falciparum D10 trophozoite lysates; single well.
Sequence of DPAP1 (Q8IIJ9 whole entry, looked up): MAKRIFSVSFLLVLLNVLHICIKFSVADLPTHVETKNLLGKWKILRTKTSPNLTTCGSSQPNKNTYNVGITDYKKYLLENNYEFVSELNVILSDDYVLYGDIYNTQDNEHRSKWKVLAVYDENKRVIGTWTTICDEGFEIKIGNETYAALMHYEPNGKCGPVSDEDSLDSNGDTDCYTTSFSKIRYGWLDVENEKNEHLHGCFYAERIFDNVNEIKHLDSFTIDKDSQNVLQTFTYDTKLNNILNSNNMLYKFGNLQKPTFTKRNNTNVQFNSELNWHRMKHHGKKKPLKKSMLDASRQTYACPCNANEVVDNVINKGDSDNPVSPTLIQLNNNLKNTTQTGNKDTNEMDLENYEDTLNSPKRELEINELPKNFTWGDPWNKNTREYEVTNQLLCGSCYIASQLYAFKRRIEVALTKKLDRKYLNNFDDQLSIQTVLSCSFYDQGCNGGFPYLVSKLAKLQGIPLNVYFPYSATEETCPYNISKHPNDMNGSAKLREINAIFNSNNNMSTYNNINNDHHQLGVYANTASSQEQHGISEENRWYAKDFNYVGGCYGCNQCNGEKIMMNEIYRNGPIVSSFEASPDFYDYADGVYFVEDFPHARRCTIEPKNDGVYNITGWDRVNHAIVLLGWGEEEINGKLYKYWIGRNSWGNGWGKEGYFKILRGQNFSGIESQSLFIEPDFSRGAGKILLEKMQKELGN
Regarding `COc1ccccc1-n1c(S)nnc1CNC(=O)c1cc(OC)c(OC)c(OC)c1`, the “% Inhibition @ 10 uM” value was determined as 6.23%. Under `O=C(Cc1ccc(F)cc1)NCCn1ccc2ccccc21` stands 3.04%. Turning to `COCc1nc2ccccc2n1CCCOc1cccc(C)c1`, the “% Inhibition @ 10 uM” value is -0.551%. Under `O=C(NCCc1ccccc1)C1c2ccccc2C(=O)N1CCc1ccccc1` (centres unmarked) stands 1.76%; under `Cc1nc2c3ccccc3nc(SCc3ccc(Cl)cc3)n2n1`, -6.64%; under `COC(F)(C(=O)Nc1cc(Br)cc2cccnc12)C(F)(F)F` (centres unmarked), 5.14%. Under `CC1=C(C#N)C(c2ccc(Cl)c(Cl)c2)C2=C(O)CC(C)(C)CC2=N1` (centres unmarked) stands 5.31%; under `O=c1[nH]n(CN2CCOCC2)c(=O)c2ccccc12`, -3.12%; under `Cc1oc2cc3c(C(=O)N4CCN(C)CC4)c(C)oc3cc2c1C(=O)N1CCN(C)CC1`, -1.43%. `COc1cc2c(cc1OC)C(C)(C(C)(C)O)NCC2` (centres unmarked): the “% Inhibition @ 10 uM” value came out at 1.64%. Under `CCOC(=O)c1c(C)[nH]c(C)c1S(=O)(=O)Nc1ccc(C)cn1` stands 1.23%. Under `O=S(=O)(c1cccc2c(S(=O)(=O)N3CCCC3)cccc12)N1CCCC1` stands 1.29%; under `CC(=O)N(C)c1ccc(NC(=O)COc2ccc3ccccc3c2)cc1`, -0.366%.

For the compound `Cc1ccccc1NC(=O)CN(c1cccc(Br)c1)S(C)(=O)=O`, the “% Inhibition @ 10 uM” value was -2.66%. With `Cc1ccc(N(CC(=O)N2CCN(C)CC2)S(=O)(=O)c2ccc(Cl)cc2)cc1C`, the “% Inhibition @ 10 uM” value is reported as -0.116%. Under `Cn1c(=O)c2c(nc(NCc3ccccc3)n2CC(=O)NCc2ccccc2)n(C)c1=O` stands -6.78%; under `COc1ccc([N+](=O)[O-])cc1NC1CCCCC1`, -7.11%; under `Cc1ccc(C(=O)NC2(C(F)(F)F)N=C3SCCN3C2=O)cc1` (centres unmarked), -7.35%. On to `COc1cccc(C(=O)Nc2ccc(Cc3ccc(N)cc3)cc2)c1OC`, for which the “% Inhibition @ 10 uM” value amounted to 0.163%. Turning to `C=CCOC(=O)C1=C(C)N=C(C)/C(=C(/O)OCC=C)C1c1ccc(C(=O)OC)cc1` (centres unmarked), the “% Inhibition @ 10 uM” value was -1.93%.

With `CCOc1ccc(-c2csc(/C(C#N)=C/c3ccc(C)cc3)n2)cc1`, the “% Inhibition @ 10 uM” value is -2.42%. Under `COc1ccc(NC(=O)C2=C(C)Nc3ncnn3C2c2cccc(Br)c2)cc1` (centres unmarked) stands -1.16%. For `Cc1ccc(OCC(=O)Nc2cccc(O)c2)cc1`, the “% Inhibition @ 10 uM” value is -6.82%.

Regarding `Cc1cc(C)cc(NC(=O)CCC(=O)O)c1`, the “% Inhibition @ 10 uM” value was 4.16%. Under `CCCN1C(=O)c2n[nH]c(C)c2C1c1ccccn1` (centres unmarked) stands 5.43%; under `O=C(NCc1cccnc1)c1ccc(C(=O)NCc2cccnc2)cc1`, 7.09%. Under `COc1ccc(CC(=O)n2nc(-c3ccccc3)nc2NCc2ccccc2Cl)cc1OC` stands 0.628%; under `Cc1ccc(CNC(=O)c2sccc2-n2cccc2)cc1`, 21.1%; under `COc1cccc(C(=O)Nc2ccc(F)cc2F)c1`, -1.07%. Under `Nc1ccc(N2CCN(c3c(F)c(F)nc(F)c3F)CC2)cc1` stands 4.01%. `Cc1ccc(-c2nc(CS(=O)CC(=O)NCCCN3CC(C)CC(C)C3)c(C)o2)cc1` (centres unmarked): the “% Inhibition @ 10 uM” value is 3.79%. With `Cc1ccc(NC(=O)CCC(C(=O)O)N2C(=O)c3ccccc3C2=O)cc1` (centres unmarked), the “% Inhibition @ 10 uM” value was 1.64%. Under `O=C(C1CCN(S(=O)(=O)c2cc(Cl)ccc2Cl)CC1)N1CCN(Cc2ccccc2)CC1` stands -8.36%; under `CN1C(=O)CC(N2CCN(c3ccccn3)CC2)C1=O` (centres unmarked), -2.51%; under `CC1=NC2=C(C(=O)CC(C)(C)C2)C(c2ccccc2C)/C1=C(\O)OC(C)C` (centres unmarked), 2.38%. Turning to `COC(=O)c1ccc(CN2CC(=O)N3CCCCC3C2=O)cc1` (centres unmarked), the “% Inhibition @ 10 uM” value is -3.53%.

On to `Cc1c(Cl)cccc1N1C(N)=C(C#N)C(c2cccnc2)C2=C1CC(C)(C)CC2=O` (centres unmarked), for which the “% Inhibition @ 10 uM” value was -0.759%. Under `N=c1c(S(=O)(=O)c2ccccc2)cc2c(=O)n3ccccc3nc2n1CC1CCCO1` (centres unmarked) stands -8.72%. Regarding `O=C(O)c1cc(C(=O)O)cc(N2C(=O)C3C4c5ccccc5C(c5ccccc54)C3C2=O)c1` (centres unmarked), the “% Inhibition @ 10 uM” value stood at 5.92%. `COc1cccc(OCC(O)CN2CC(C)CC(C)C2)c1` (centres unmarked): the “% Inhibition @ 10 uM” value came out at 2.6%.

With `O=C(NCc1ccccc1)c1cccc(N2C(=O)C3C4C=CC(C5CC45)C3C2=O)c1` (centres unmarked), the “% Inhibition @ 10 uM” value is listed as -0.661%.

On to `Cc1c2cnn(CC(=O)NCC3CCCO3)c(=O)c2c(C)n1Cc1ccccc1F` (centres unmarked), for which the “% Inhibition @ 10 uM” value was -2.17%. Under `CCCc1ccc(-c2c(C)sc(N)c2C#N)cc1` stands -0.463%. Under `CCN1CCC(NCC2CCCCC2)CC1` stands 3.19%. Turning to `O=C(/C=C/c1ccccc1)Nc1cccc(C(=O)O)c1`, the “% Inhibition @ 10 uM” value was found to be 1.63%. In the case of `O=C(c1cccn2c(=O)c3sccc3nc12)N1CCN(Cc2ccc3c(c2)OCO3)CC1`, the “% Inhibition @ 10 uM” value was determined as 0.121%. Under `CCCN1C(C(=O)c2ccccc2)=C(OC(=O)c2ccccc2OC)c2ccccc2S1(=O)=O` stands -3.22%; under `COc1ccc(CN2CCN(Cc3ccc(OC)c(Br)c3)CC2)c(OC)c1`, -15.1%.

As for `Cc1cc(C(=O)NCCCN2CCN(C3CCCCC3)CC2)n(-c2ccccc2)n1`, the “% Inhibition @ 10 uM” value is 1.55%. Under `COc1ccc(CN2CCN(C(=O)COc3ccc(Cl)cc3)CC2)cc1OCc1ccccc1` stands -5.26%; under `CC1CCC(C(C)C)C(OCC(O)CN2CC(C)OC(C)C2)C1` (centres unmarked), -6.12%. Consider `O=C(Cn1ncn2nc(-c3cccs3)cc2c1=O)N1CCN(Cc2ccccc2)CC1`, for which the “% Inhibition @ 10 uM” value is listed as 0.623%. Under `CN1CCC(N2CCN(c3ccc(F)cc3)CC2)CC1` stands 2.99%; under `CC(C)(CC(=O)Nc1sc2c(c1C(=O)O)CCC2)CC(=O)Nc1sc2c(c1C(=O)O)CCC2`, 25.6%; under `COc1cc(C(=O)N2C3=C(CCCC3)C(=O)NC23CCCCC3)cc(OC)c1OC`, -6.85%. On to `Cc1ccc(S(=O)(=O)c2cc3c(=O)n4cccc(C)c4nc3n(CCO)c2=N)cc1`, for which the “% Inhibition @ 10 uM” value is 8.09%. On to `COc1ccccc1CNC(=O)c1sc2nc3n(c(=O)c2c1C)CCCCC3`, for which the “% Inhibition @ 10 uM” value is given as -6.34%.

Turning to `CC12CC3CC(C)(C1)CC(OCCNC(=O)c1noc4c1COc1ccccc1-4)(C3)C2`, the “% Inhibition @ 10 uM” value stood at 49%. Regarding `O=C(Cc1c(O)nc2ccccc2c1O)NCc1ccccc1`, the “% Inhibition @ 10 uM” value was -1.37%. For the compound `O=C(O)c1ccc2c(c1)C(=O)N(CCO)C2=O`, the “% Inhibition @ 10 uM” value is -5.62%. Under `O=C1c2ccccc2C(O)N1Cc1ccco1` (centres unmarked) stands 0.494%; under `CCOc1cc(C2c3c(oc4ccccc4c3=O)C(=O)N2c2nccs2)ccc1O` (centres unmarked), 0.189%. As for `COCCNC(=O)c1ccc(CSc2nc3ccncc3n2Cc2ccc(C)cc2)cc1`, the “% Inhibition @ 10 uM” value is reported as 8.62%. Under `COc1cc(C)ccc1OCCn1cccc1/C=C1\C(=N)N2N=C(N3CCCC3)SC2=NC1=O` stands 3.32%; under `Cc1cccc(CN(C)C2CCN(C)CC2)c1`, 4.67%; under `COc1cccc(N(CC(=O)N2CCOCC2)S(=O)(=O)c2ccc(C)cc2)c1`, 10.7%. Under `Cc1ccc(-n2nnc(-c3nsc(NC(=O)c4cccs4)n3)c2C)cc1C` stands 4.44%; under `Cc1cc(Cl)ccc1OCCCC(=O)Nc1ccc(F)cc1`, -5.82%; under `COc1ccc(CC(=O)Nc2ccn(Cc3ccccc3)n2)cc1OC`, -3.34%. Under `CC1=C(C(=O)Nc2ccc(Br)cc2)C(c2ccc(Br)cc2)NC(=O)N1C` (centres unmarked) stands -5.59%; under `COCCNC(=O)c1cnc2ccc(S(=O)(=O)N3CCc4ccccc4C3)cc2c1O`, -4.65%; under `CN(CC(=O)Nc1cc(Cl)c(Cl)cc1Cl)S(=O)(=O)c1ccc(F)cc1`, 7.97%.

Regarding `CCC1C(c2ccccc2)NC(c2ccccc2)CC1(O)c1ccc(F)cc1` (centres unmarked), the “% Inhibition @ 10 uM” value amounted to 2.92%. Under `C=C(CS(=O)(=O)c1ccccc1)c1ccccc1` stands 0.317%; under `ClC1=CCC2CN(CCN3CCCCC3)CC2C1` (centres unmarked), -6.88%. Take `N#Cc1c(SCC(=O)c2ccccc2)nsc1SCC(=O)c1ccccc1`: the “% Inhibition @ 10 uM” value was 12.8%. Consider `O=Nc1c(O)[nH]c2c(C(=O)O)cccc12`, for which the “% Inhibition @ 10 uM” value came to 1.08%.

In the case of `Cc1cccc(-n2c(C)cc(/C=C3/C(=N)N4C(=NC3=O)SN=C4S(C)(=O)=O)c2C)c1C`, the “% Inhibition @ 10 uM” value came to 5.06%. Turning to `COc1cccc(C2=NOC(C(=O)NCCN3CCOCC3)C2)c1` (centres unmarked), the “% Inhibition @ 10 uM” value is 1.62%.

As for `COc1ccc(C2CC(C(F)(F)F)n3ncc(C(=O)N4CCc5ccccc5C4)c3N2)cc1` (centres unmarked), the “% Inhibition @ 10 uM” value is listed as -0.0938%. Under `O=C(CC1(O)C(=O)Nc2c(Cl)cc(Cl)cc21)c1ccccc1O` (centres unmarked) stands 2.4%; under `COc1cc(NC(=O)COc2ccc(C)cc2C)cc(OC)c1OC`, 6.74%; under `COCCNC(=O)c1cc(-c2ccc(O)cc2)on1`, 0.723%. `Oc1nc(N(Cc2ccccc2)Cc2ccccc2)nc2nccnc12`: the “% Inhibition @ 10 uM” value is reported as -10.8%. Under `CCCNC(=O)C1CCCN(c2nnc(C)c3c(C)n(-c4ccc(Cl)cc4)nc23)C1` (centres unmarked) stands 5.2%.

In the case of `CCSC1=C(C#N)C(c2cccs2)C(C(=O)Nc2ccccc2)=C(C)N1` (centres unmarked), the “% Inhibition @ 10 uM” value is on record as -2.8%.

Take `COc1ccc(/C=C(/C#N)c2nc(-c3ccc(Br)cc3)cs2)cc1OC`: the “% Inhibition @ 10 uM” value is recorded as 2.4%. Under `O=C(Cn1cc(S(=O)(=O)CCN2C(=O)c3ccccc3C2=O)c2ccccc21)N1CCCCCC1` stands -0.264%. Under `COc1ccc(CNC(=O)c2noc3c2COc2ccc(C)cc2-3)cc1` stands -3.17%; under `CC(=O)NC(C)c1nc2ccccc2n1Cc1ccccc1C` (centres unmarked), -5%. With `CC(=O)c1cccc(NC(=O)CSc2ncnc3sc(C)c(C)c23)c1`, the “% Inhibition @ 10 uM” value was -4.06%. For the compound `COc1ccccc1C1CC(c2c(O)cc(C)oc2=O)=NCCS1` (centres unmarked), the “% Inhibition @ 10 uM” value is listed as -0.0372%. Under `CC(C)c1[nH]nc2c1C(c1ccc3c(c1)OCO3)C(C#N)=C(N)O2` (centres unmarked) stands 0.487%; under `COc1ccc(/C=c2\sc3ncnn3c2=O)cc1`, -3.33%.

For the compound `CC(C)c1ccc(/C=C/C(=O)Nc2ccccn2)cc1`, the “% Inhibition @ 10 uM” value is 1.4%. In the case of `CN1CCN(Cc2ccc(F)cc2F)CC1`, the “% Inhibition @ 10 uM” value is 4.81%. Consider `CCC(=O)Nc1ccc2nc(SCC(=O)Nc3ccccc3OC)sc2c1`, for which the “% Inhibition @ 10 uM” value is reported as -3.46%. Consider `CSc1nc(O)c2c(n1)-c1ccccc1CC21CCCCC1`, for which the “% Inhibition @ 10 uM” value is reported as -0.711%.
